According to the supplement of paper PMC11417369:
± gives the standard deviation of the averaged measurements. The list shows a part of the results.

The sequences below were run on PfAP2-EXP AP2 domain (GST-tagged) (assay: gcPBM binding intensity (ln(normalized median fluorescence intensity)); higher = stronger DNA binding).
How it was run: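 After 1 h on an Agilent 4 × 180k array of primer-extended double-stranded 36-bp intergenic genomic probes and negative controls, bound GST-tagged P. falciparum DNA-binding domains were detected with Alexa488 anti-GST antibody and scanned at 488 nm. The domains had been expressed in E. coli, and binding took place in 1× PBS with 1% milk, 0.2 mg/ml BSA, 0.5% salmon testes DNA and 0.03% Triton X-100. Binding intensity is the highest Masliner-normalised natural-log median intensity across replicate spots of either probe orientation.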

Which “gcPBM binding intensity (ln)” value does the source give for “TACATTTTACTTGTTACACACATATAAAATTAACCA [CACACA_site2922]” here?
Its value is 8.32 ± 0.12.

Which “gcPBM binding intensity (ln)” value does the source give for “AGTTAATGAATAGGCACACATATATCTGTATAAATA [CACACA_site4448]” here?
Its value is 8.63 ± 0.34.

With “AGAAAAAAAAAAAGTACACACATATAATATATATAT [CACACA_site2973]” as the sequence, how does the “gcPBM binding intensity (ln)” value read?
Its value is 9.38 ± 0.2.

With “CATATTGAATATTTAACACACATTTCGCTTAATTCA [CACACA_site2086]” as the sequence, how does the “gcPBM binding intensity (ln)” value read?
Its value is 8.54 ± 0.4.

How did the “gcPBM binding intensity (ln)” value turn out when “ACACATTATAAAACTGTCGCTCATAAAGAAGAATGA [CACACA_negctrl_site999]” was run?
Its value is 8.75 ± 0.44.

Which “gcPBM binding intensity (ln)” value does the source give for “GCAACAAAAAATCAGACATGCATTTTAAAATGAATA [TGCATGCA_site846]” here?
Its value is 8.62 ± 0.2.

Which “gcPBM binding intensity (ln)” value does the source give for “GAATGAATTGTTATTAGTACACATGTGAATTATAAA [XGTACX_site6790]” here?
The value was 8.64 ± 0.36.

For “TTATATATAAAATACTGTACATTTAATTGATGGTTT [XGTACX_site2073]”, which “gcPBM binding intensity (ln)” value is on record?
The value was 8.41 ± 0.45.

For “TATAAAAAAAAAATTTGTACATAATAATATATATAT [XGTACX_site2074]”, which “gcPBM binding intensity (ln)” value is on record?
The value was 9.23 ± 0.2.

Which “gcPBM binding intensity (ln)” value does the source give for “TATATAAATTTAATAACACACATATAAAAATGAATT [CACACA_site2366]” here?
The value was 8.62 ± 0.58.

For “AAAAAGCAGGATTATACACACAAATATATATATGTT [CACACA_site1077]”, which “gcPBM binding intensity (ln)” value is on record?
The value was 8.35 ± 0.36.

“TTTTATAATAAGTATGTAAAAATTATATATATATAT [CACACA_negctrl_site711]” was tested. Which “gcPBM binding intensity (ln)” value did it give?
Its value is 10.1 ± 0.36.

“AACTTGTATATATACACACACACACTATCTTTTTTT [CACACA_site8601]” was tested. Which “gcPBM binding intensity (ln)” value did it give?
Its value is 8.86 ± 0.38.

How did the “gcPBM binding intensity (ln)” value turn out when “ATATATATATAACATTGTACACACAAAGAAATAATA [XGTACX_site6440]” was run?
Its value is 9.67 ± 0.16.

With “ATATGTTTACGTAAATGTACACGTCAGTATATTTCT [XGTACX_site8199]” as the sequence, how does the “gcPBM binding intensity (ln)” value read?
The value was 8.66 ± 0.35.

How did the “gcPBM binding intensity (ln)” value turn out when “ATTTTTTTTTTTTTTATTCCCCTTTCGAAAAAAACC [CACACA_negctrl_site1139]” was run?
Its value is 8.88 ± 0.47.

Which “gcPBM binding intensity (ln)” value does the source give for “CTTTTATATGTCTAATGTACGGGCAATATAAATTTG [XGTACX_site8323]” here?
The value was 8.45 ± 0.45.

“AAAAAAAAAAAAAAAAAAATATATTATATATATATA [XGTACX_negctrl_site467]” was tested. Which “gcPBM binding intensity (ln)” value did it give?
Its value is 9.9 ± 0.071.

Which “gcPBM binding intensity (ln)” value does the source give for “TATTTTTTTAAGTGCAGTACACTTAATTTCCCCCAA [XGTACX_site7328]” here?
The value was 8.92 ± 0.14.

For “ATTTTTTTTTTTTTTTTAAGACAAACTCTTAATTTA [CACACA_negctrl_site1389]”, which “gcPBM binding intensity (ln)” value is on record?
The value was 8.16 ± 0.46.

Which “gcPBM binding intensity (ln)” value does the source give for “ATTCCAAAAAAATCAAGTACTAATTTATTATATTAC [XGTACX_site3920]” here?
The value was 8.26 ± 0.38.

“CGACAAAAATTTTACAGTACAGTATAAACCTTTTTA [XGTACX_site290]” was tested. Which “gcPBM binding intensity (ln)” value did it give?
The value was 8.37 ± 0.39.

“TTTTTCACATTTCAGTGTACATTTTAATCATATATA [XGTACX_site915]” was tested. Which “gcPBM binding intensity (ln)” value did it give?
Its value is 8.63 ± 0.31.

“TACACACATTACAGATGTACATAAAATTAAAAAAAT [XGTACX_site1804]” was tested. Which “gcPBM binding intensity (ln)” value did it give?
The value was 8.75 ± 0.49.

With “TCAAAAAATATATTTGCACACTCAAAAAAAAAAAAA [CACACA_site860]” as the sequence, how does the “gcPBM binding intensity (ln)” value read?
Its value is 8.32 ± 0.33.

“TATATATATATAAATACATGCATATAATTAATCCAT [TGCATGCA_site400]” was tested. Which “gcPBM binding intensity (ln)” value did it give?
The value was 9.88 ± 0.29.

Which “gcPBM binding intensity (ln)” value does the source give for “ACAGGAGTATAACCTCGTACAAAATATATTTACCAT [XGTACX_site5805]” here?
The value was 8.78 ± 0.69.

“TCTTTAAAAAAAAAAAAAAAAAATTCCAAATAAATA [TGCATGCA_negctrl_site538]” was tested. Which “gcPBM binding intensity (ln)” value did it give?
Its value is 7.75 ± 0.5.

For “CCTAGAAAAGCATATACACACGCGCAAAATAAAATT [CACACA_site4902]”, which “gcPBM binding intensity (ln)” value is on record?
Its value is 9.21 ± 0.58.

For “TATATATATACATAATGTACAAGAATTTGTATTGAA [XGTACX_site627]”, which “gcPBM binding intensity (ln)” value is on record?
The value was 8.97 ± 0.071.

Which “gcPBM binding intensity (ln)” value does the source give for “TAAAAATAAAGAAAATGTACATAAATAAAAATAAAG [XGTACX_site2279]” here?
The value was 8.93 ± 0.29.

“TTTATGTATTTTTATGCACACATGCGTGGCTTATAT [CACACA_site4374]” was tested. Which “gcPBM binding intensity (ln)” value did it give?
Its value is 9.01 ± 0.34.

How did the “gcPBM binding intensity (ln)” value turn out when “TACGGACATACTAACGGACACACGTAAGAAAAAAAA [CACACA_site602]” was run?
The value was 8.74 ± 0.61.

“AATATTCGTAATTGATGTACTTGTAATTCATACATT [XGTACX_site8314]” was tested. Which “gcPBM binding intensity (ln)” value did it give?
Its value is 8.39 ± 0.31.

For “TTTTTTTCAATATTTGCACACGATTATAATATTTAA [CACACA_site2237]”, which “gcPBM binding intensity (ln)” value is on record?
The value was 8.79 ± 0.36.

Which “gcPBM binding intensity (ln)” value does the source give for “TTTATAATAAAATTTTTACACACTTTAAAAAAAAAA [CACACA_site8070]” here?
The value was 8.07 ± 0.37.

With “CAGAATAATTTTATCGGTACACACTGTATGCATAAT [XGTACX_site736]” as the sequence, how does the “gcPBM binding intensity (ln)” value read?
Its value is 8.8 ± 0.44.

How did the “gcPBM binding intensity (ln)” value turn out when “TATAATAAAAATAATACACACATATATAGCAATCGT [CACACA_site3241]” was run?
The value was 8.87 ± 0.54.

For “AATAAATATCTGTACACACACAAATAAATACATATC [CACACA_site5108]”, which “gcPBM binding intensity (ln)” value is on record?
The value was 8.77 ± 0.3.

With “CATAAAATATAAAACACACACACATATATATATATA [CACACA_site223]” as the sequence, how does the “gcPBM binding intensity (ln)” value read?
Its value is 10.2 ± 0.44.

For “TTCTGTATAATATAAAAACAAAAATTAAATTAAAAC [CACACA_negctrl_site81]”, which “gcPBM binding intensity (ln)” value is on record?
Its value is 8.51 ± 0.34.

With “TATTATATAAATATACGTACATATACTAACCTTTTA [XGTACX_site6317]” as the sequence, how does the “gcPBM binding intensity (ln)” value read?
The value was 8.44 ± 0.3.

For “TTCCATGTAGGACATGCATGCAGTTTTTAAAATATT [TGCATGCA_site481]”, which “gcPBM binding intensity (ln)” value is on record?
Its value is 10 ± 0.26.

“AAATTTTTTATTCTAATTAATATTTACACAATATAT [TGCATGCA_negctrl_site376]” was tested. Which “gcPBM binding intensity (ln)” value did it give?
The value was 8.18 ± 0.36.

How did the “gcPBM binding intensity (ln)” value turn out when “TTTTATTAAAACCACGCATGCAGAGGAAACGGTGAG [TGCATGCA_site1029]” was run?
Its value is 9.78 ± 0.45.

For “ATATATAATTTTTGCTGTACACAAAATATTAATTTA [XGTACX_site2057]”, which “gcPBM binding intensity (ln)” value is on record?
Its value is 8.64 ± 0.29.

“TATGACATATCCTGTAGTACAACGTATATATAAGAT [XGTACX_site1327]” was tested. Which “gcPBM binding intensity (ln)” value did it give?
Its value is 8.7 ± 0.22.

“AATAAAAATAATGAATGTACATATATATATACAATA [XGTACX_site3342]” was tested. Which “gcPBM binding intensity (ln)” value did it give?
Its value is 8.57 ± 0.47.

For “ATATATAACGTGCACACACACATTTACGTATGAATA [CACACA_site6948]”, which “gcPBM binding intensity (ln)” value is on record?
Its value is 9.48 ± 0.23.

Which “gcPBM binding intensity (ln)” value does the source give for “ATTATATCATCTAAAACATGCACACATATGTACTCT [TGCATGCA_site949]” here?
Its value is 8.91 ± 0.46.

For “GTTGAGAAAATATGTGCATGTCAGGTTAAATTTTTA [TGCATGCA_site744]”, which “gcPBM binding intensity (ln)” value is on record?
Its value is 8.63 ± 0.33.

With “TAAGATAAAAAAAATGCATGTTCTTATAATATTGTC [TGCATGCA_site939]” as the sequence, how does the “gcPBM binding intensity (ln)” value read?
The value was 9.03 ± 0.17.

With “ATATATATATATATATGTACATAATATATGTCCTAT [XGTACX_site5087]” as the sequence, how does the “gcPBM binding intensity (ln)” value read?
Its value is 10 ± 0.55.

“GTAAGCATAAATATATGTACATACATATACAGATAT [XGTACX_site3361]” was tested. Which “gcPBM binding intensity (ln)” value did it give?
Its value is 8.6 ± 0.37.

With “ATTAGTTTACACATATGTACATATATTACAACAAAA [XGTACX_site275]” as the sequence, how does the “gcPBM binding intensity (ln)” value read?
Its value is 8.76 ± 0.47.

How did the “gcPBM binding intensity (ln)” value turn out when “GGTGATATAATATATACATGCACATATATATTATTA [TGCATGCA_site970]” was run?
The value was 8.82 ± 0.057.
